According to PubChem BioAssay AID1461 (National Center for Advancing Translational Sciences (NCATS), 2008):
Out of some 220,000 compounds screened, about 2,300 (1%) were called active. Inconclusive results, whose numbers are uncertain, are shown with a selection of clear calls. Calls follow the shape of the dose curve; as a rule, active = well fitted inhibition curve with a large enough effect; inconclusive = small, poorly fitted or top-dose-only effect, or effect the other way; inactive = no such curve, though single readings can be large or run the other way. Potencies of inconclusive entries are left out as doubtful fits.

molecular target: Neuropeptide S receptor (Homo sapiens) (UniProt Q6W5P4); assay: qHTS Assay for Antagonists of the Neuropeptide S Receptor: cAMP Signal Transduction; conditions: CHO-NPSR cells, cAMP TR-FRET, antagonist mode; series mostly up to 38.3 µM; also: nearly all actives have a fitted effect of over 50% in size
Potency is read from the fitted curve at half-maximal effect; tags tell the direction and shape of the fitted curve.

UniProt Q6W5P4, sequence (Q6W5P4 whole entry, looked up): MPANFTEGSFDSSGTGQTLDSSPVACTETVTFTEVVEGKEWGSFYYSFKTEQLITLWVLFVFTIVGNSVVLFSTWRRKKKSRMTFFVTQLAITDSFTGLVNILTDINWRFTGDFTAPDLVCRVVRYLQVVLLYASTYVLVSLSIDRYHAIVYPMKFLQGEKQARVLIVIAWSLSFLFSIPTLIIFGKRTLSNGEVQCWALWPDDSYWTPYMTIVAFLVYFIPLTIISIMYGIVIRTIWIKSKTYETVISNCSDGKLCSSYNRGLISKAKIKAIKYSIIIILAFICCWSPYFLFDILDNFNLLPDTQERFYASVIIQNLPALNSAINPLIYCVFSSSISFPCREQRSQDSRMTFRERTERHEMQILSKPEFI

| Compound | Potency |
| --- | --- |
| Cc1cc(C)nc(NS(=O)(=O)c2ccc(NC(=S)NC(=O)c3cccnc3)cc2)n1 | inactive |
| CCC(CC)C(=O)Nc1cccc(C(=O)NCc2ccco2)c1 | inactive |
| Cc1nn(-c2ccccc2)c(C)c1NC(=O)Cc1cccs1 | inactive |
| Cc1onc(-c2ccc(Cl)cc2)c1-c1ccnn1S(=O)(=O)c1ccc(Cl)cc1 | inconclusive [inhibitor, single point] |
| Clc1ccc2nc3ccccn3c2c1 | inconclusive [inhibitor, single point] |
| CCOc1cc(-c2nc(-c3ccccc3OC)no2)cc(OCC)c1OCC | inconclusive [inhibitor, single point] |
| CCOc1ccc(NC(=S)N2CCN(CCN3C(=O)c4cccc5cccc(c45)C3=O)CC2)cc1 | inactive |
| CCc1cc(/C(Cc2ccc3ccccc3n2)=N\O)c(O)cc1O | inconclusive [inhibitor, single point] |
| CC(C)(C)c1ccc(NC(=O)c2c(F)cccc2Cl)cc1 | inconclusive [activator, single point] |
| O=C1CC(Sc2ncccn2)C(=O)N1c1ccccc1C(F)(F)F (stereo unspecified) | inactive |
| Cc1ccc(-c2cc(-c3ccccc3Cl)c(C#N)c(N)n2)o1 | inactive |
| Clc1ccccc1OCc1nnc(-c2ccccc2Br)o1 | inactive |
| O=C(CN1C(=O)C2CC=CCC2C1=O)NCc1cccs1 (stereo unspecified) | inactive |
| Cc1ccc(NC(=O)c2ccc(NCCCN3CCOCC3)c([N+](=O)[O-])c2)cc1Cl | inactive |
| COc1cc(/C=C2\NC(=S)N(C)C2=O)ccc1O | inactive |
| CN1Cc2c(N3CCOCC3)nc3sc(C(=O)c4ccccc4)c(N)c3c2CC1(C)C | active: 12.6 µM |
| C=CCN(CC=C)c1nc2ccccc2nc1C(C#N)C(=O)OC(C)C (stereo unspecified) | inconclusive [inhibitor, single point] |
| O=C1C2C3c4ccccc4C(c4ccccc43)[C@@H]2c2nc3ccccc3n21 (stereo partly specified) | inconclusive [inhibitor, partial curve] |
| COC(=O)c1ccc(/C=C/C(=O)c2ccc(OC)c(OC)c2)cc1 | inconclusive [inhibitor, single point] |
| Cc1cc(N2CCN(S(=O)(=O)c3ccc(C)c(C)c3)CC2)c2ccccc2n1 | inconclusive [inhibitor, single point] |
| O=C(C1CCC1)N1CCc2cc(S(=O)(=O)NC3CCCc4ccccc43)ccc21 (stereo unspecified) | inconclusive [inhibitor, single point] |
| Cc1cc2oc(=O)cc(Cn3nnc(-c4ccc(Cl)cc4)n3)c2cc1C(C)C | inactive |
| CCn1c(=O)c2cc(C(=O)N(C)c3ccccc3F)sc2c2ccccc21 | inconclusive [activator, partial curve] |
| O=C(Nc1ccc([N+](=O)[O-])cc1)Nc1ccc(Cl)cc1F | inactive |

| Compound | Potency |
| --- | --- |
| O=C(Nn1c(-c2ccncc2)nc2ccccc2c1=O)c1ccc([N+](=O)[O-])cc1Cl | inactive |
| COc1cccc(-c2nnc(-c3ccc(C(F)(F)F)cc3)o2)c1OC | inconclusive [activator, full curve, poor fit] |
| COc1cc2[nH]c(=O)n(CCCCCC(=O)N3CC=C(c4ccccc4)CC3)c(=O)c2cc1OC | inconclusive [inhibitor, single point] |
| CC(C)Cn1c2c(c(O)c(C(=O)Nc3ccc(F)cc3)c1=O)CCCC2 | inactive |
| O=C(Nc1ccccc1Cl)c1cc(S(=O)(=O)N2CCCCC2)ccc1N1CCOCC1 | inconclusive [inhibitor, partial curve] |
| COc1cc(OC)c(S(=O)(=O)Nc2ccccc2N2CCCCC2)cc1NC(C)=O | inactive |
| O=[N+]([O-])c1ccc(S(=O)(=O)CC(CN2CCCCC2)N2CCCCC2)cc1 (stereo unspecified) | inactive |
| COc1cc(/C=C2\C(=O)ON=C2c2ccccc2)cc(Cl)c1O | active: 7.94 µM |
| O=C(NCc1ccccc1F)c1ccc(S(=O)(=O)Nc2cccc(C(F)(F)F)c2)cc1 | inconclusive [inhibitor, single point] |
| O=C(O)CCC(=O)Nc1ccc2c(c1)oc1ccccc12 | inconclusive [inhibitor, single point] |
| C=CCn1c(SCc2c(C)noc2C)nc2sc3c(c2c1=O)CCCC3 | inconclusive [inhibitor, partial curve] |
| Cc1ccc(Cn2c(=O)n(CCC(=O)NCc3ccc4c(c3)OCO4)c(=O)c3ccccc32)cc1 | inactive |
| COc1ccc(-c2nn(C)c(=O)c3ccccc23)cc1NC(=O)COc1ccccc1 | inconclusive [inhibitor, single point] |
| O=C(Nc1ccc(Cl)cc1)Nc1ccccc1Sc1ncc([N+](=O)[O-])s1 | inconclusive [inhibitor, single point] |
| Nc1[nH]n2c(=O)cc(-c3ccccc3)nc2c1N=Nc1ccccc1 | inactive |
| CCOC(=O)c1cc(-c2ccccc2)nc2nc(N3CCCCC3)sc12 | inconclusive [inhibitor, single point] |
| CCOC(=O)c1c(C)oc2ccc(NS(=O)(=O)c3cccs3)cc12 | inconclusive [inhibitor, single point] |
| CCCOc1ccc2oc(=O)c3c(c2c1)CCCN3C(=O)CN1CCN(C(=O)c2ccco2)CC1 | inactive |
| Cn1c(=O)c([N+](=O)[O-])c(Cl)c2ccccc21 | inconclusive [inhibitor, single point] |
| CNC(=S)N/N=C/c1ccc(N(C)C)cc1 | inconclusive [activator, full curve] |
| CCc1ccc(C2C3=C(CC(C)(C)CC3=O)OC3=C2C(=O)CC(C)(C)C3)cc1 | inconclusive [inhibitor, single point] |
| Cc1ccc(CN(CC(=O)N/N=C/c2ccccc2[N+](=O)[O-])S(=O)(=O)c2ccc(C)cc2)cc1 | inconclusive [inhibitor, partial curve] |
| Cc1ccc(Nc2nc(C)nc3c2oc2ccccc23)cc1 | inconclusive [inhibitor, single point] |
| O=C(CCCCn1c(=O)[nH]c2ccccc2c1=O)N1CCN(c2cccc(C(F)(F)F)c2)CC1 | inconclusive [inhibitor, partial curve] |

| Compound | Potency |
| --- | --- |
| COc1ccc2c(c1)C(C)=CC(C)(C)N2C(=O)CSc1nnc(-c2ccc(C)cc2)o1 | inconclusive [inhibitor, partial curve] |
| COc1ccccc1OCCCCN1CCN(C(c2ccccc2)c2ccccc2)CC1 | inactive |
| Cc1ccc(S(=O)(=O)N2CCC(C(=O)Nc3ccccc3N3CCCCC3)CC2)cc1 | inconclusive [inhibitor, partial curve, poor fit] |
| Cc1ccc(Cl)cc1N1CCN(C(=O)Cc2cn(C)c3ccccc23)CC1 | inconclusive [activator, single point] |
| Brc1cccc(CNc2nc3ccccc3n2CCN2CCCCC2)c1 | inconclusive [inhibitor, single point] |
| COc1ccc(S(=O)(=O)N2CCc3ccccc32)cc1C(=O)OCc1c(C)noc1C | inconclusive [inhibitor, single point] |
| OC12CCCCC1C(c1ccc3c(c1)OCO3)N(Cc1ccc(F)cc1)CC2 (stereo unspecified) | inconclusive [inhibitor, single point] |
| COc1ccc(CCNC(=S)Nc2ccccc2)cc1 | inactive |
| C=CCN1C=CC(=C/C=C(/C#N)C(=O)OCC)C=C1 | active: 10 µM |
| CCOc1ccc(NC(=S)Nc2cc(-c3ccccc3)[nH]n2)cc1 | inconclusive [inhibitor, single point] |
| NS(=O)(=O)c1cccc(NC(=S)NC(=O)C23CC4CC(CC(C4)C2)C3)c1 | inactive |
| CCOC(=O)C1=C(O)C(=O)N(Cc2ccc(C(C)(C)C)cc2)CC1 | inactive |
| Cc1cccc(-n2c(CCc3ccccc3)nnc2SCC(=O)c2ccccc2)c1 | inconclusive [inhibitor, single point] |
| COc1cc2c(cc1NC(=O)COC(=O)Cn1cnc3ccccc31)oc1ccccc12 | inconclusive [inhibitor, partial curve] |
| N#CC1=C(N)Oc2cc(O)c(C=Nc3ccccc3)cc2C1c1ccccc1 (stereo unspecified) | inconclusive [inhibitor, single point] |
| O=S(=O)(NCC(Nc1ccccc1)c1ccccc1)c1ccc(Cl)cc1 (stereo unspecified) | inconclusive [inhibitor, single point] |
| CCCCCCCCCn1c2c(c(=N)c3c1CCC3)CCCC2 | inconclusive [activator, full curve] |
| COc1ccc(CCN(C(=O)C(F)(F)F)C(C(=O)NC2CCCC2)c2cccs2)cc1 (stereo unspecified) | inconclusive [inhibitor, single point] |
| CCCC(C)C(=O)Nc1nc(C)c(-c2csc(Nc3ccccc3OC)n2)s1 (stereo unspecified) | inconclusive [inhibitor, single point] |
| COc1ccc(OC)c(CNc2nc3ccccc3n2CCN2CCCCC2)c1 | inconclusive [inhibitor, single point] |
| COc1ccc(-n2nnc3c(SCC(=O)OCc4ccccc4)ncnc32)cc1 | inactive |
| CC(C)(C)Sc1ccc2nc3c(n2c1)CCCC3 | inactive |
| CCOC(=O)c1c(NC(=O)C(F)(OC)C(F)(F)F)sc(C(=O)N2CCCCC2)c1C (stereo unspecified) | inconclusive [inhibitor, partial curve] |
